We go through 91 molecules from PubChem BioAssay AID360 (National Center for Advancing Translational Sciences (NCATS), 2006).

Among all 48,000 compounds or so, about 550 (1.1%) were called active. Another 4% or so got no clear call; they are omitted. No stated cut-off is given here; in the data, active means potency below about 15 µM; inconclusive means mostly about 16 µM to 33 µM; inactive means weaker than that. The list shows a part of the results. Some results are limits rather than exact numbers.
Potency means the concentration at half of the fitted maximal effect.

Sequence of UniProt P04062 (P04062 whole entry, looked up): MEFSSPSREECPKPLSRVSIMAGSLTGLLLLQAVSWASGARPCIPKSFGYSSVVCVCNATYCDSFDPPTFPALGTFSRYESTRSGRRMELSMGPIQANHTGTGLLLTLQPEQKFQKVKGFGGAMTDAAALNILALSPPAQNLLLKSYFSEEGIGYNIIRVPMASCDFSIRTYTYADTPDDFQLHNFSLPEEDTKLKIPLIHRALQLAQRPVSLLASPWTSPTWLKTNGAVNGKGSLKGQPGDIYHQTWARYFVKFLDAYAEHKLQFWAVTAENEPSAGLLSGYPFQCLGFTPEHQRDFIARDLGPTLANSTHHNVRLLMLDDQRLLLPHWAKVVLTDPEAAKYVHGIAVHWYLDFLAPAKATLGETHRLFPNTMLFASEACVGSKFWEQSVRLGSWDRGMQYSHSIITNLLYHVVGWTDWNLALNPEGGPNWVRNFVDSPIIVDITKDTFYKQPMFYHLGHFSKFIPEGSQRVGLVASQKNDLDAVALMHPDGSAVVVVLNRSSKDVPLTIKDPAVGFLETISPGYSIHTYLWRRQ

This assay addresses Lysosomal acid glucosylceramidase (Homo sapiens) (UniProt P04062). Put plainly: Glucocerebrosidase.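 Further: the screen sought inhibitors.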 The conditions noted are these: purified enzyme, resorufin glucoside fluorescence (screen aimed at inhibitors), 20 min. The gist of the method:
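Wild-type enzyme at 0.2 nM final in 50mM citric acid/KH2PO4, 10mM sodium taurocholate, 0.01% tween-20, pH 5.9, with resorufin beta-D-glucopyranoside at 30 uM final. Compounds titrated, 20 min at RT, red fluorescence read; AC50 from titration.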
In the case of `O=C(Cn1nnc(-c2cccs2)n1)OC1CCCCC1`, the Potency is inactive: > 76.9 µM.
Regarding `O=C(C1Cc2ccccc2CN1S(=O)(=O)c1cccs1)N1CCCCCC1` (stereo unspecified), the Potency was inactive: > 76.9 µM.
`COc1ccc(C(=O)NCC(=O)OC2CCCCC2=O)cc1` (stereo unspecified): the Potency was inactive: > 76.9 µM.
In the case of `Cc1noc(C)c1C(=O)OCC(=O)c1ccc[nH]1`, the Potency was inactive: > 76.9 µM.
Turning to `COc1ccccc1CNS(=O)(=O)c1cccc(S(=O)(=O)N2CCOCC2)c1`, the Potency is inactive: > 76.9 µM.
With `Cc1occc1-c1nnc(SCC(=O)Nc2nccs2)n1CCc1ccccc1`, the Potency is inactive: > 76.9 µM.
As for `COC(=O)CSc1nnc(-c2ccncc2)n1N`, the Potency was inactive: > 76.9 µM.
As for `O=C(NCC(=O)N(CCN1CCOCC1)C(C(=O)NC1CCCC1)c1cccnc1)c1cccs1` (stereo unspecified), the Potency is inactive: > 76.9 µM.
In the case of `CCN(CC)c1ccc2c(c1)C(=O)N(C)C2=O`, the Potency is inactive: > 76.9 µM.
For the molecule `CCOC(=O)CN(C(=O)CSc1nnc(COc2ccc(OC)cc2)n1C)c1ccccc1`, the Potency is inactive: > 76.9 µM.
Consider `CCOc1ccc2ccccc2c1C(=O)N1CCN(c2ccccc2)CC1`, for which the Potency is inactive: > 76.9 µM.
For `Clc1ccc(Cc2nn3c(Cn4nnc5ccccc54)nnc3s2)cc1`, the Potency was inactive: > 76.9 µM.
`CC(C)c1nc(SCC(=O)N2CCCC2)c2ccccc2n1`: the Potency is inactive: > 76.9 µM.
`O=C(O)Cn1nnnc1-c1ccc(F)cc1`: the Potency is inactive: > 76.9 µM.
As for `O=c1c2cnn(-c3ccccc3)c2ncn1Cc1ccccn1`, the Potency is inactive: > 76.9 µM.
With `CCOC(=O)N1CCC2(CC1)C(C#N)=C(N)Oc1n[nH]c(CSc3ccc(C)cc3)c12`, the Potency was inactive: > 76.9 µM.
The result for `CCOC(=O)CSC1=Nc2ccccc2C2=NC(CC(=O)NCc3ccccc3)C(=O)N12` (stereo unspecified) reads inactive: > 76.9 µM.
`Cc1ccc(-c2noc(CCC(=O)Nc3ccc(C)cn3)n2)cc1`: the Potency was inactive: > 76.9 µM.
Consider `C=CCn1c(SCC(=O)NCc2ccc3c(c2)OCO3)nnc1C1CCCCC1`, for which the Potency is inactive: > 76.9 µM.
The result for `CCOC(=O)Cc1csc(NC(=O)CSc2nnc(Cc3csc(N)n3)n2C)n1` reads inactive: > 76.9 µM; that for `CCC(=O)N1CCc2cc(S(=O)(=O)NC(C(=O)NCc3ccccc3)C(C)C)ccc21` (stereo unspecified), inactive: > 76.9 µM; that for `NC(=O)COC(=O)C(Cc1ccccc1)NS(=O)(=O)c1ccccc1F` (stereo unspecified), inactive: > 76.9 µM.
On to `O=C(CSc1nc2ccccc2o1)Nc1nc2ccccc2s1`, for which the Potency was inactive: > 76.9 µM.
For the molecule `Cc1ccccc1NS(=O)(=O)c1ccc2[nH]cc(C(=O)NCCCN3CCOCC3)c(=O)c2c1`, the Potency was inactive: > 76.9 µM.
With `Cc1cc2nnc(SCC(=O)NCc3cccs3)n2c(N)n1`, the Potency was inactive: > 76.9 µM.
Regarding `COc1cccc(C(=O)N(Cc2nc(-c3ccc(C)cc3)no2)C(C)C)c1`, the Potency was inactive: > 76.9 µM.
As to `O=C1c2cccnc2C(O)N1Cc1ccco1` (stereo unspecified), the Potency is inactive: > 76.9 µM.
As to `CC(=O)Nc1nonc1-c1nc2ccccc2n1Cc1ccccn1`, the Potency is inactive: > 76.9 µM.
With `O=C(Cc1ccc(Cl)cc1)NCCN1CCCC1`, the Potency is inactive: > 76.9 µM.
For `O=C(OCCN1C(=O)c2ccccc2C1=O)c1ccc(S(=O)(=O)N2CCCCCC2)cc1`, the Potency is inactive: > 76.9 µM.
With `CCOc1ccc(-c2noc(-c3cccnc3)n2)cc1OC`, the Potency was inactive: > 76.9 µM.
As for `C/C(CCc1oc2ccccc2c1-c1ccc(C)o1)=N/O`, the Potency is inactive: > 76.9 µM.
With `Cc1ccc(C(C)C)c(OCc2nnc3n2CCCCC3)c1`, the Potency is inactive: > 76.9 µM.
On to `Cc1cc(C)nc(SCc2nnc(SCC(=O)N3CCCc4ccccc43)o2)n1`, for which the Potency is inactive: > 76.9 µM.
For the molecule `COc1cc(NC(=O)c2ccc(C)cc2)c(OC)cc1NC(=O)CN1CCOCC1`, the Potency was inactive: > 76.9 µM.
In the case of `O=C1c2ccccc2C(=O)C12Cc1ccccc1N1CCN(c3ccccc3)CC12` (stereo unspecified), the Potency is inactive: > 76.9 µM.
In the case of `COc1ccc(-c2nc3ccccc3c(=O)n2CCCn2ccnc2)cc1`, the Potency was inactive: > 76.9 µM.
Under `COC(=O)Nc1nnc(SCc2ccc(C)cc2)s1` stands inactive: > 76.9 µM; under `COc1ccc(NC(=O)c2ccco2)cc1NC(=O)c1ccco1`, inactive: > 76.9 µM; under `CCOC(=O)c1nnsc1NC(C)=O`, inactive: > 76.9 µM.
Consider `CC1CN(C2CCCCC2)c2nc3c(c(=O)n(C)c(=O)n3C)n2C1` (stereo unspecified), for which the Potency was inactive: > 76.9 µM.
Take `Cc1cc(C(=O)Cn2nnc3ccccc3c2=O)c(C)n1Cc1cccs1`: the Potency is inactive: > 76.9 µM.
Turning to `O=C(O)c1ccc(COc2ccc(Cl)cc2)o1`, the Potency was inactive: > 76.9 µM.
As for `COc1cccc2cc(C(=O)N(C)C3CCN(C)CC3)c(=O)oc12`, the Potency is inactive: > 76.9 µM.
As to `COc1ccc(C2(C(F)(F)F)NC(=O)N(C)C(=O)N2C)cc1` (stereo unspecified), the Potency was inactive: > 76.9 µM.
Take `O=C(CSc1nnc2scc(-c3ccc(Cl)cc3)n12)NCc1ccco1`: the Potency was inactive: > 76.9 µM.
`CCCS(=O)(=O)N1CCCC(c2nc(-c3cccc(OC)c3)no2)C1` (stereo unspecified): the Potency was inactive: > 76.9 µM.
The result for `Cc1ccccc1-n1ncc2c(SCC(=O)NCc3cccs3)ncnc21` reads inactive: > 76.9 µM; that for `CN(C(=O)COC(=O)c1nc(-c2ccccc2)n(-c2ccccc2)n1)C1CCS(=O)(=O)C1` (stereo unspecified), inactive: > 76.9 µM.
For the molecule `Clc1ccc(Cl)c(-c2nn3c(COc4ccccc4)nnc3s2)c1`, the Potency is inactive: > 76.9 µM.
For the molecule `CCOc1ccccc1NC(=O)N1CCC(NC(=O)c2ccccc2C)CC1`, the Potency is inactive: > 76.9 µM.
With `Clc1cccc(-c2nnc3sc(-c4ccccc4)nn23)c1`, the Potency was inactive: > 76.9 µM.
Regarding `CC(OC(=O)c1cc[n+]([O-])cc1)C(=O)Nc1ccc(Cl)cn1` (stereo unspecified), the Potency was inactive: > 76.9 µM.
Regarding `CC1(C(=O)NC2CCCC2)CCC(=O)N1Cc1ccc2c(c1)OCO2` (stereo unspecified), the Potency was inactive: > 76.9 µM.
In the case of `CCCCNC(=O)c1cc(-c2ccc(OC)cc2)on1`, the Potency was inactive: > 76.9 µM.
Consider `Cc1c(C(=O)O)oc2c1ccc1ccccc12`, for which the Potency is inactive: > 76.9 µM.
Take `COc1ccc(N2C(=O)[C@@H]3Cc4ccccc4CN3C2=O)cc1`: the Potency is inactive: > 76.9 µM.
The result for `CCOc1ccc(NC(=O)Cn2nnc(-c3ccccc3NC(=O)CC)n2)cc1` reads inactive: > 76.9 µM; that for `O=C(c1ccc2c(c1)OCO2)N(c1ccc(Cl)cc1)C1C=CS(=O)(=O)C1` (stereo unspecified), inactive: > 76.9 µM; that for `CC1(C)NC(=O)N(c2ccccc2Cl)C1(C)NO` (stereo unspecified), inactive: > 76.9 µM.
As for `O=C(CCn1c(=O)sc2ccccc21)Nc1cccnc1`, the Potency is inactive: > 76.9 µM.
Turning to `CCn1nnnc1SCC(=O)Nc1nnc(C(C)C)s1`, the Potency is inactive: > 76.9 µM.
As for `CC(C)N(C(=O)COC(=O)c1ccccc1C(=O)N1CCN(c2ccc(F)cc2)CC1)C(C)C`, the Potency is inactive: > 76.9 µM.
On to `c1ccc(-c2nc3nonc3c3nc4ccccc4n23)cc1`, for which the Potency was inactive: > 76.9 µM.
On to `O=C(NC1CCCCCCC1)C1CCN(S(=O)(=O)N2CCCC2)CC1`, for which the Potency is inactive: > 76.9 µM.
In the case of `N#CCSc1nnc(N)s1`, the Potency was inactive: > 76.9 µM.
Take `O=C(O)Cn1nc(C(F)(F)F)c2c1CCCCC2`: the Potency is inactive: > 76.9 µM.
Regarding `CC1CCN(S(=O)(=O)c2cccc(-c3nnc(-c4cccnc4)o3)c2)CC1`, the Potency is inactive: > 76.9 µM.
For the molecule `O=C(c1oc(=O)c2ccccc2c1-c1ccccc1)N1CCOCC1`, the Potency is inactive: > 76.9 µM.
As to `CCC(C)(C)n1nnnc1C(c1cccs1)N1CCN(c2nc3ccccc3s2)CC1` (stereo unspecified), the Potency was inactive: > 76.9 µM.
`O=C(O)COc1ccc2c(-c3ccccc3)cc(=O)oc2c1`: the Potency was inactive: > 76.9 µM.
For the molecule `Cc1c(NC(=O)CN2c3cccc4cccc(c34)S2(=O)=O)c(=O)n(-c2ccccc2)n1C`, the Potency was inactive: > 76.9 µM.
In the case of `COC(=O)c1nc(NC2=NCCCCC2)n[nH]1`, the Potency was inactive: > 76.9 µM.
The result for `C=CCn1c(SCc2ccccc2)nnc1-c1cccnc1` reads inactive: > 76.9 µM; that for `Cc1cc2ncn(S(=O)(=O)N3CCCCC3)c2cc1C`, inactive: > 76.9 µM.
Consider `C=CCN(CC=C)S(=O)(=O)c1ncn[nH]1`, for which the Potency is inactive: > 76.9 µM.
The result for `Cc1nc(-c2ccccc2O)n(S(=O)(=O)N(C)C)n1` reads inactive: > 76.9 µM; that for `COc1ccccc1NC(=O)CSc1nc2sc(C)c(C)c2c(=O)n1Cc1ccco1`, inactive: > 76.9 µM.
As for `COc1ccc2[nH]c(=O)c(CN(C(=O)c3ccncc3)C(C)(C)C)cc2c1`, the Potency was inactive: > 76.9 µM.
Regarding `CC(C)CCN1C(=O)c2ccc(C(=O)NCc3ccco3)cc2C1=O`, the Potency is inactive: > 76.9 µM.
For the molecule `COCCCNC(=O)C(Cc1ccccc1)NS(=O)(=O)c1ccc2c(c1)c(=O)n(C)c(=O)n2C` (stereo unspecified), the Potency is inactive: > 76.9 µM.
With `COC(=O)CSc1nc2cc3c(cc2cc1C)OCCO3`, the Potency was inactive: > 76.9 µM.
On to `Cc1ccc(CN2C(=O)CCC2C(=O)NC2CC2)cc1` (stereo unspecified), for which the Potency was inactive: > 76.9 µM.
For `CSc1nc2ccc(S(=O)(=O)N3CCc4ccccc43)cc2s1`, the Potency was inactive: > 76.9 µM.
`CN(Cc1nc(-c2cccnc2)no1)S(=O)(=O)c1ccc(Br)cc1`: the Potency was inactive: > 76.9 µM.
For the molecule `CCC(=O)N1CCc2cc(S(=O)(=O)NC(CC(C)C)C(=O)N3CCc4ccccc43)ccc21` (stereo unspecified), the Potency is inactive: > 76.9 µM.
As for `Cc1c(NC(=O)C2(c3ccccc3)CCOCC2)c(=O)n(-c2ccccc2)n1C`, the Potency was inactive: > 76.9 µM.
For the molecule `CCN(C(=O)CCc1nc(-c2ccccc2F)no1)c1cc(OC)ccc1OC`, the Potency was active: 15.2 µM.
For `COc1c(C)cc(Br)cc1C(=O)NCc1cccnc1`, the Potency is inactive: > 76.9 µM.
`CCCn1c(SCC(=O)c2ccc3c(c2)OCCO3)nnc1-c1ccco1`: the Potency was inactive: > 76.9 µM.
As to `Cc1cccc(OCC(O)CN2CCN(C3CCCCC3)CC2)c1` (stereo unspecified), the Potency is inactive: > 76.9 µM.
